Test results taken from patent US20230242645A1 (WUXI BIOLOGICS SHANGHAI, published 2023).

Experiments:
[1] = target: T1, human PD-L1 extracellular domain, mouse Fc (PD-L1.ECD.mFc, W3153-hPro1.ECD.mFc) (human, UniProt Q9NZQ7 partial chain); assay: dual binding ELISA: antibody titrated on coated PD-L1.ECD.mFc, signal from biotinylated human VEGF (his) at 0.5 ug/ml (needs both arms)
T1 construct: extracellular domain; also called WBP315-hPro1.ECD.mFc; antigen-2; not shown: mouse Fc tag at the C-terminus

[2] = target: T2, human PD-L1 on CHO-K1 cells (WBP315.CHO-K1.hPro1.C11) (human, UniProt Q9NZQ7); assay: flow cytometry on human PD-L1 expressing CHO-K1 cells
T2 construct: whole, on cells; also called engineered human PD-L1 expressing cells
Method: Engineered human PD-L1 expressing cells (WBP315.CHO-K1.hPro1.C11) were seeded at 1×10⁵ cells/well in U-bottom 96-well plates. […] UIgG1 was added to the cells. Plates were incubated at 4° C. for 1 hour. After wash, FITC-labeled goat anti-human IgG (Jackson ImmunoResearch, 109-095-008) was added to each well and the plates were incubated at 4° C. for 1 hour. The binding of the antibodies onto the cells was tested by flow cytometry and the mean fluorescence intensity (MFI) was analyzed by FlowJo.

[3] = target: T3, human VEGF, his tag (W325-hPro1.his) (human, UniProt P15692-4 27-191, limits assumed); assay: SPR (Biacore T200), antibody captured on anti-human Fc, antigen as analyte, 25 °C
T3 construct: Analyte in SPR; also called WBP325-hPro1. his; W325-hPro1.ECD.his (VEGF); not shown: C-terminal his tag (6xhis)
T3 sequence (looked up): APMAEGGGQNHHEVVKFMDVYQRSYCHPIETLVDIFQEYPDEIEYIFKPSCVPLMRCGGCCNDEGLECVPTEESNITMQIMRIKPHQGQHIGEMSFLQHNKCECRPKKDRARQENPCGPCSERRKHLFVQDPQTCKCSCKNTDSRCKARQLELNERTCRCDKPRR
Method: (§1) Biacore T200, Series S Sensor Chip CM5, Amine Coupling Kit, and 10×HBS-EP were purchased from GE Healthcare. The antibody was captured onto the anti-human Fc IgG (Jackson, 109-005-098) surface immobilized on CM5-biosensor chip (GE Healthcare Inc.). The assay was performed at 25° C. with HBS-EP+ buffer (GE Healthcare Inc.) as running and dilution buffer. Serially diluted PD-L1 antigen or VEGF antigen (W315-hPro1.ECD.his or W325-hPro1.his) and running buffer were injected for an association phase and followed dissociation phase detection. Regeneration of the chip surface was reached by an injection of 10 mM Glycine, pH 1.5.
(§2) The on-rate constant (ka) and off-rate constant (kd) were also measured in the mean time. Final data of each interaction was deducted from reference channel and buffer channel data.

[4] = target: T4, human PD-L1 extracellular domain, his tag (W315-hPro1.ECD.his) (human, UniProt Q9NZQ7 partial chain); assay: as above
T4 construct: extracellular domain; Analyte in SPR; also called W315-hPro1.ECD.his (PD-L1); ECD of PD-L1; not shown: C-terminal his tag (6xhis)
Method: as §1, §2

[5] = target: T5, human VEGF (WBP325-hPro1, Sino Biological, 11066-HNAB) (human, UniProt P15692-4 27-191); assay: ELISA, plate coated with 0.25 µg/ml human VEGF
T5 construct: Bought protein; also called antigen-1
T5 sequence (looked up): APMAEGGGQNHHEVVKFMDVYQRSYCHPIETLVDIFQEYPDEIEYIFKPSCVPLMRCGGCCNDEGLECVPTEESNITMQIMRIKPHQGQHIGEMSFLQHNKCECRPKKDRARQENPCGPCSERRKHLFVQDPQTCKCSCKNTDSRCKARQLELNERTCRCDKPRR

[6] = target: T5, human VEGF (WBP325-hPro1, Sino …); assay: cell-based or functional assay
[7] = target: T5, human VEGF (WBP325-hPro1, Sino …); assay: dual binding ELISA: antibody titrated on coated human VEGF, signal from biotinylated PD-L1.ECD.mFc at 0.5 ug/ml (needs both arms)

EC50 (read off the curve) [1]: ~0.1 nM | EC50 [2]: ~0.128 nM | Kd [3]: 0.0153 nM | koff [3]: 3.64e-05 s⁻¹ | kon [3]: 2.38e+06 M⁻¹ s⁻¹ | Kd [4]: 0.155 nM | koff [4]: 0.000333 s⁻¹ | kon [4]: 2.14e+06 M⁻¹ s⁻¹ | EC50 [5]: ~0.095 nM | IC50 of inhibition of VEGF-induced HUVEC proliferation (CellTiter Glo) [6]: ~12 nM | EC50 (read off the curve) [7]: ~0.2 nM
B1: W3256-U15T2.G6-1.uIgG1 (bispecific antibody)
heavy: EVQLVESGGGLVQPGGSLRLSCAASGYTFTNYGMNWVRQAPGKGLEWVGWINTYTGEPTYAADFKRRFTFSLDTSKSTAYLQMNSLRAEDTAVYYCAKYPHYYGSSHWYFDVWGQGTLVTVSSASTKGPSVFPLAPSSKSTSGGTAALGCLVKDYFPEPVTVSWNSGALTSGVHTFPAVLQSSGLYSLSSVVTVPSSSLGTQTYICNVNHKPSNTKVDKRV[skipping human IgG1 Fc]
light: EVQLVESGGGLVQPGGSLRLSCAASGHFSNLAVNWFRQAPGKERELVAGILWSGGSTFYADSVKGRFTISRGNAENMLYLQMNSLRAEDTAVYYCNTGTNWGQGTLVTVSSGGGGSGGGGSDIQMTQSPSSLSASVGDRVTITCSASQDISNYLNWYQQKPGKAPKVLIYFTSSLHSGVPSRFSGSGSGTDFTLTISSLQPEDFATYYCQQYSTVPWTFGQGTKVEIKRTVAAPSVFIFPPSDEQLKSGTASVVCLLNNFYPREAKVQWKVDNALQSGNSQESVTEQDSKDSTYSLSSTLTLSKADYEKHKVYACEVTHQGLSSPVTKSFNRGEC
notes: Anti-VEGF x anti-PD-L1 bispecific antibody; the VHH is fused to the N-terminus of the light chain of Bevacizumab; human IgG1; also called W3256 antibody
